Test results as given in the DeepSol protein solubility set.

Assay: soluble on expression in E. coli; label from the status in PepcDB or PDB records

Row | Sequence | soluble on expression in E. coli
1 | GSTYHLDVVSAEQQMFSGLVEKIQVTGSEGELGIYPGHAPLLTAIKPGMIRIVKQHGHEEFIYLSGGILEVQPGNVTVLADTAIRGQDLDEARAMEAKRKAEEHISSSHGDVDYAQASAELAKAIAQLRVIELTKKAM | soluble
2 | MKLIVGMTGATGAPLGVALLQALREMPNVETHLVMSKWAKTTIELETPYSARDVAALADFSHNPADQAATISSGSFRTDGMIVIPCSMKTLAGIRAGYADGLVGRAADVVLKEGRKLVLVPREMPLSTIHLENMLALSRMGVAMVPPMPAFYNHPETVDDIVHHVVARVLDQFGLEHPYARRWQGLPQARNFSQENE | soluble
3 | MPINKLRKRLGDLLVEEGIVSEAQLEQALNAQKNTGRRLGDTLISLGFLSETQLLNFLAQQLSLPVIDLSRAHVDIDAVPLLPEVHARRLRALVIGRSGDTLRIAMSDPADLFAQEALLNQLPDYGFEFVIAPEKQLVDGFDRYYRRTKEIVSFAEQLHAEHKTNDSFDFEITDSDSDEVTVVKLINSLFEDAIQVGASDIHIEPDANVLRLRQRIDGVLHETLLHEVNIASALVLRLKLMANLDISEKRLPQDGRFNIRVKGQSVDIRMSTMPIQHGESVVMRLLNQSAGVRKLEESGIPPHLLLRLRHQLKRPHGMILVTGPTGSGKTTTLYGALNELNTSGKKIITAEDPVEYRISRINQVQVNPKINLDFSTLLRTFLRQDPDIILVGEMRDQETVEIGLRAALTGHLVLSTLHTNDAVDSALRLIDMGAPGYLVASAVRAVVAQRLVRKVCPDCSGHDEVDEARRQWLVTRFPNQAAAKFTRGRGCQNCNLTGYRGRIGVFEMLELDQPMMDCLRANDAVAFSKAARSNTDYKPLLASAMELALQGIVSLDEVMSLGEGDSSGLVEPIYL | not soluble
4 | MRGSHHHHHHTDPALRAMENYKHTTVLLDEAVNGLNIRPDGIYIDGTFGRGGHSRLILSQLGEEGRLLAIDRDPQAIAVAKTIDDPRFSIIHGPFSALGEYVAERDLIGKIDGILLDLGVSSPQLDDAERGFSFMRDGPLDMRMDPTRGQSAAEWLQTAEEADIAWVLKTYGEERFAKRIARAIVERNREQPMTRTKELAEVVAAATPVKDKFKHPATRTFQAVRIWVNSELEEIEQALKSSLNVLAPGGRLSIISFHSLEDRIVKRFMRENSRGPQVPAGLPMTEEQLKKLGGRQLRALGKLMPGEEEVAENPRARSSVLRIAERTNAGLCGR | soluble
